In all, about 310,000 compounds went through this assay and about 14,000 (4.5%) showed an effect of 50% or more. Effects have a minus sign here. The list shows a part of the results.
Target: human ether-à-go-go-related gene (hERG) potassium channel (human, UniProt Q12809)
Experiment: primary screen, population patch clamp on CHO cells stably expressing hERG
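Also: peak tail current of the secondary pulse compared with the same well before compound.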

Sequence of human ether-à-go-go-related gene (hERG) potassium channel (Q12809 whole entry, looked up): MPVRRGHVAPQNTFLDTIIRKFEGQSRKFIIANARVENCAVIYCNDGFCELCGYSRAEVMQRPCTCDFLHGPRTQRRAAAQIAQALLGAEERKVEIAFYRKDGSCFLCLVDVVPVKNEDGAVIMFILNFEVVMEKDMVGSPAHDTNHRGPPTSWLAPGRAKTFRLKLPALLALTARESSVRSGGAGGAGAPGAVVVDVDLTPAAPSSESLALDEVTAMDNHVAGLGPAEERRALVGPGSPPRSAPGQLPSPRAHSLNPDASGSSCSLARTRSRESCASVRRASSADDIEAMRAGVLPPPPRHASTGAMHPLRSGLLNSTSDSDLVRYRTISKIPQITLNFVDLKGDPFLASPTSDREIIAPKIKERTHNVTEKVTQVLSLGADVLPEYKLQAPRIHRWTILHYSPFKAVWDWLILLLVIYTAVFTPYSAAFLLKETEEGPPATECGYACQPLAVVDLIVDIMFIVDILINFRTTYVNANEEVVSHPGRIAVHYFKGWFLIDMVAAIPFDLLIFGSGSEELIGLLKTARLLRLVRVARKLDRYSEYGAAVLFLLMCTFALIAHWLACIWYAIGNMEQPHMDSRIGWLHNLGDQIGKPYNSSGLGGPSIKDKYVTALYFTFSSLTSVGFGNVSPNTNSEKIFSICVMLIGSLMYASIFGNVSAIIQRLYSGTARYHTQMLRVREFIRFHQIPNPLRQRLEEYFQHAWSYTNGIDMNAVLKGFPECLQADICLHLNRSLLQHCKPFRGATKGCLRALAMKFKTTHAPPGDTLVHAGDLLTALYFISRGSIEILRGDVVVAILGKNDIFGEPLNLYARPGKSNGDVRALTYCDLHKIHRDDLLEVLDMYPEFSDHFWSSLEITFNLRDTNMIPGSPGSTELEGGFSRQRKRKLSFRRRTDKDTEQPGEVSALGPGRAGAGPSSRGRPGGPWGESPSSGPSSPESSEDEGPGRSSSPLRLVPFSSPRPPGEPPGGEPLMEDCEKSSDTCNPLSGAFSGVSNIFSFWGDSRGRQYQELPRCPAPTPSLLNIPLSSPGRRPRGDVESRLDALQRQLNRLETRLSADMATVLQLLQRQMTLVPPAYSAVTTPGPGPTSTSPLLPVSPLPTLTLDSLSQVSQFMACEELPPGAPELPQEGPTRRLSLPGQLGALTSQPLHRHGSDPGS

SMILES	hERG current change (%, negative = inhibition) at 10uM [%]
CCOC(=O)c1oc2ccccc2c1NC(=O)c1cc(OC)cc(OC)c1	7.29
O=C(CS(=O)c1cccc(C(F)(F)F)c1)Nc1ccc(Cl)cc1Cl (centres unmarked)	8.83
N#Cc1c(N2CCOCC2)nc(N)c2c(N)nc3c(c12)CC(CCl)O3 (centres unmarked)	3.55
O=C(O)c1cc2ccccc2c2cc(Br)ccc12	15.5
O=C(Cn1nnc(N2CCCC2)n1)N/N=C/c1ccc(Cl)cc1	13.1
O=c1sc2ccccc2c(N2CCCC2)c1[N+](=O)[O-]	6.33
O=C(NCCn1ccc2ccccc21)C1CCCCC1	-1.81
COc1ccccc1N1CCN(C(=O)Cc2c(C(=O)O)[nH]c3ccc(Cl)cc23)CC1	18.7
CCOC(=O)c1ccc(NC(=O)CSc2nnc(CNC(=O)c3c(F)cccc3Cl)o2)cc1	-6.94
COC(=O)C1=C(c2ccccc2)C[C@@H]2CC[C@H]1N2C(=O)N1CCC(C)CC1	-7.73
CC(C)NC(=O)CN1CCC(O)(c2ccccc2)CC1	-1.07
CCOC(=O)C1CCN(C(=O)c2ccc(N3CCOCC3)c([N+](=O)[O-])c2)CC1	-41.8
CCN1N=C(c2ccccc2)CCC1=O	16.8
O=C(c1ccc(COc2ccc(Br)cc2)o1)N1N=C(C(F)F)CC1(O)C(F)F (centres unmarked)	2.57
Cc1nc(-c2cc(C#N)c(Sc3cccc(C(F)(F)F)c3)nc2C)cs1	14.7
Cc1ccc(C(C)(C)NC(=O)C2CCC(=O)N(CC3CCCCC3)C2)cc1 (centres unmarked)	3.82
CCOc1cc(S(=O)(=O)N(CC)CC)ccc1F	-1.31
Cc1ccc(C(=O)NNC(=S)Nc2cccc3ccccc23)s1	19
COCC(=O)N1CCC(Oc2ccc(C(=O)N(C)CCCC3CCCC3)cc2)CC1	-26.9
COc1cc(Br)c(CC(=O)O)cc1OC	-2.3
O=C(CSc1nnc(-c2cccs2)n1Cc1ccccc1)N1CCc2ccccc2C1	-32.4
Cc1cc(-c2csc(N)n2)c(C)n1CCC(C)C.Cl	4.32
Cc1cc(C(=O)Nc2ccc(OCc3ccccc3)cc2)c(C)o1	13.6

SMILES	hERG current change (%, negative = inhibition) at 10uM [%]
CCOC(=O)c1ccc(NC(=O)CC2Sc3ncnn3C2=O)cc1 (centres unmarked)	22.4
COc1ccccc1N(CC(=O)NC1CCCCC1)S(C)(=O)=O	18.9
COc1ccc(CNC(=O)CN(C2CCCCC2)S(C)(=O)=O)cc1	-13.8
O=C(CSc1ccccc1)Nc1cccnc1	23
CCN(CC(=O)NCc1cccs1)S(=O)(=O)c1cccc(Br)c1	11.9
COc1cc(NC(=O)c2ccc(NC3=NC4CS(=O)(=O)CC4S3)cc2)cc(OC)c1OC (centres unmarked)	-11.2
Cc1ccc(NC(=O)c2ccc([N+](=O)[O-])o2)cc1C	6.74
O=C1CCC(C(=O)O)(c2ccccc2)C1 (centres unmarked)	8.52
COC(=O)c1cc(Br)c(=O)n(CC(C)C)c1	10.1
CCN(CC)C(=O)N1CCN(C(=O)N2CCOCC2)CC1	29.8
Cc1ccc(SCc2nc3ccccc3n2CC(=O)Nc2c(C)cccc2C)cc1	3.07
S=C(NCc1ccc2c(c1)OCO2)NCc1ccc2c(c1)OCO2	-9.62
CC(C)(C)NC(=O)C(c1ccc(F)cc1)N(Cc1ccco1)C(=O)CCC(=O)Nc1nccs1 (centres unmarked)	10.6
COc1ccccc1N(C)S(=O)(=O)c1ccc(C(=O)NCc2ccc3c(c2)OCO3)cc1	4.2
Cc1cc(/C=N/Nc2ncnc(N)c2[N+](=O)[O-])c(C)n1-c1ccccc1	-9.15
CN1CCN(Cc2nc(-c3cccs3)no2)CC1c1ccccc1 (centres unmarked)	-8.45
CN=C(Nc1ccc(C(=O)OC)cc1)SC1CC(=O)N(c2ccccc2F)C1=O (centres unmarked)	10.2
O=C(Cc1ccccc1F)Nc1cc(S(=O)(=O)N2CCCC2)ccc1Cl	14
CC(OC(=O)c1ccccc1CCc1ccccc1)C(N)=O (centres unmarked)	5.05
O=C(O)c1cccc(S(=O)(=O)N2CCCC2)c1	-14.3
O=C(Cn1nc(-c2ccc(F)cc2)ccc1=O)Nc1ccc2c(c1)OCCO2	-0.525
O=C(CN1CCCc2ccccc21)NCc1ccccc1Cl	11.1
c1ccc(Oc2cccc(Oc3ccccc3)n2)cc1	14.1

SMILES	hERG current change (%, negative = inhibition) at 10uM [%]
CC(=O)Oc1ccc(C)cc1-n1nc2ccccc2n1	-9.28
COC(=O)c1ccccc1S(=O)(=O)N1CCC(C(=O)NC2CCCCC2)CC1	-3.67
Cn1c(Cc2csc(N)n2)nnc1SCC(=O)NCc1ccccc1	1.12
CN(C)c1ccc(S(=O)(=O)N2CCCCC2)cc1NC(=O)CCNC(=O)c1ccc(Cl)cc1	-27.4
Cc1ccccc1N(CC(=O)Nc1ccccc1C(=O)O)S(C)(=O)=O	10.9
[O-][n+]1ccc(OCc2ccccc2)cc1	-3.98
Cc1cccc(NC(=O)COC(=O)c2cc3ccccc3oc2=O)c1	-13.2
COc1ccc(S(=O)(=O)n2nc(-c3ccc(Cl)cc3)cc2N)cc1	11.7
O=C(NCCCN1CCCC1)c1ccc2c(c1)N(Cc1ccccc1F)C(=O)c1ccccc1S2(=O)=O	3.48
CCN(CC)S(=O)(=O)c1ccc(N2CCOCC2)c(NC(=O)c2ccc3ccccc3c2)c1	13.6
Cc1[nH]c2ccccc2c1C(=O)C(=O)Nc1ccc2c(c1)OCO2	0.276
Cc1nn(-c2ccccc2)c2sc(C(=O)OCN3C(=O)c4ccccc4C3=O)cc12	0.225
COc1ccc(C2=NNC(c3cccnc3)=Nc3ccccc32)cc1	-2.94
OCCNc1ncnc2c1ncn2Cc1ccccc1	-7.11
Cc1ccc(NC(=O)Cn2ncc3ccccc32)c(Cl)c1	2.7
COC(=O)C1=C(c2cccc(OC)c2OC)C[C@@H]2CC[C@H]1N2C(=O)NCCNC(C)=O	10.7
O=C(COC(=O)/C=C/c1cn(-c2ccccc2)nc1-c1cccnc1)Nc1ccc(Cl)cc1Cl	-6.59
ClCCOCOCCCl	13.9
CS(=O)(=O)c1ccc(Cl)c(NC(=O)COC(=O)c2ccc(-n3cnnn3)cc2)c1	-7.82
CCOc1ccc(OCc2ccc(C(=O)N(CC)CC)cc2)cc1	2.22
CCC(CC)C(=O)Nc1ccccc1NC(C)=O	2.8
Cc1ccc(C(=O)NCCC(=O)N2CCC3(CC2)NCCc2[nH]cnc23)cc1	4.08
O=C(Cn1nc2n(c1=O)-c1ccccc1SC2)N/N=C/c1ccncc1	-1.97

SMILES	hERG current change (%, negative = inhibition) at 10uM [%]
COc1ccc(-n2c(C)cc(-c3csc(NC(=O)c4ccc(S(=O)(=O)N(C)C)cc4)n3)c2C)cc1	5.99
O=C(c1ccc([N+](=O)[O-])c(CS(=O)(=O)c2ccc(Cl)cc2)c1)N1CCCC1	-31.4
O=C(Nc1nc(-c2cccs2)c(-c2ccccc2)s1)c1ccco1	9.98
Cn1c(CCCNC(=O)c2cccs2)nc2ccccc21	-7.37
Cc1ccc(CNC(=O)C2C3C=CC(C3)C2C(=O)O)cc1 (centres unmarked)	-3.26
CC(CCc1ccccc1)NCc1ccc(Cl)cc1Cl.O=C(O)C(=O)O (centres unmarked)	-31.5
COc1ccccc1OCCNC(=O)CN(c1cccc(C)c1)S(=O)(=O)c1ccccc1	-30.8
Cc1cccc(NC(=S)NC(=O)c2ccc(Br)o2)c1C	-14.3
COc1ccc(C(=O)Nc2ccc3[nH]ccc3c2)cc1OC	3.46
Cc1ccc(-c2nc3ccccc3c(=O)n2NC(=S)N(C)C)cc1	2.01
CC(C)c1cc(CNC(=O)c2ccc(OC3CCN(Cc4ccccn4)CC3)cc2)on1	-16.1
CCOc1ccc(/C=C/c2nc(C#N)c(NCCCOC)o2)cc1	4.86
O=C(NCc1ccc2c(c1)OCO2)c1ccc(Br)cc1	-19.8
CN1C(=O)C2C[C@@]3(Br)c4ccccc4N(OOSc4ccccc4)[C@H]3N2C(=O)[C@@H]1Cc1ccccc1 (some centres unmarked)	-13.6
O=C1/C(=C/c2ccncc2)N2CCC1CC2	2.32
Br.COc1ccc(Nc2nc(-c3ccc(OC)cc3)cs2)cc1	19.2
COc1ccc(Cl)cc1S(=O)(=O)N1CCCC(C(=O)NCC(N)=O)C1 (centres unmarked)	-9.16
O=C(Nc1cccc(-c2cn3cccnc3n2)c1)c1ccco1	8.04
O=C(CSc1nc2c(sc3ccccc32)c(=O)n1Cc1ccccc1)NCC1CCCO1 (centres unmarked)	16.8
O=C(O)Cn1c2c(c3ccccc31)CCCC2	7.39

— publication PMC4336329 (PLoS ONE, 2015)
